The subject of this data set is ATP. Put plainly: switch fluorescence ratio, 500 uM ATP over buffer (Cy3 cluster intensity, sum of 5 cycles each) (fold (ratio)); higher = stronger signal-on switching upon ATP binding; sequences stand for … in TCGTCGGCAGCGTCAGATGTGTATAAGAGACAGTTTTTTTTTTTTTTTTTTTTTTTTT…TC. The settings on record: aptamer strand: ATP DNA aptamer (quencher-CACCTGGGGGAGTATTGCGGAGGAAGG + anchor), 100 nM annealed; ATP concentration: 500 uM; one replicate. A digest of the protocol: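 The quencher-labelled ATP aptamer, at 100 nM, was annealed to Cy3-labelled switching-strand clusters on a modified Illumina MiSeq flow-cell. The clusters were imaged in selection buffer, then after 15 min with 500 uM ATP at 22 °C, and this buffer/ATP cycle ran five times with NaOH stripping and re-annealing between runs. Per-cluster fluorescence ratios, summed target-cycle over summed buffer-cycle Cy3 intensity, were averaged per switch-domain sequence. Clusters outside 100-1000 RFU were excluded.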

Switch fluorescence ratio data for 67 sequences are collected here from the supplement of paper PMC10126150.

Sequences with one replicate were seen in a single cluster, so their values are uncertain.
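Note: ATP exposure 15 min at 22 °C before imaging.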

As to CAAGAGGTAA, the switch fluorescence ratio is 0.994. With CCTCTCGGG the figure was 1.2; with AAGATGGTAT, 0.985; with TTAGTTGGC, 1.01. With TCTTGGGGAT the figure was 1.11; with TGAAAATCG, 1.03. With GTAGAGAAGG the figure was 1.01; with CGAGGACTCT, 0.983; with CATACGTCTA, 1.32.

For CCGTGATCCC, the switch fluorescence ratio was determined as 2.69. With GTGGAATCGG the figure was 1.01. On to GCCCCCCGGA, for which the switch fluorescence ratio stood at 1.23. Take TTCGGTGTCC: the switch fluorescence ratio came out at 1.03.

Consider TGTGAGGGTG, for which the switch fluorescence ratio is 1.13. With TTTGTTAGTT the figure was 0.965; with TGATGTTTTG, 0.988; with GACTAAGGTG, 1.25. For GCGTTGTGTT, the switch fluorescence ratio came to 0.931. Regarding TGAAAGTCGG, the switch fluorescence ratio came to 1.01. CGGCAGCGGC: the switch fluorescence ratio amounted to 1.05.

Regarding GGTCACTAGT, the switch fluorescence ratio was found to be 0.989. With CTCCTTGTCT the figure was 1.08. In the case of AGTACAATCT, the switch fluorescence ratio turned out to be 1.05. Next, TTGTTAAAAA: 0.992; GAGTATGCCT: 1.01; GCTACAGCCG: 1.09.

Take CGAGGATGCT: the switch fluorescence ratio came out at 0.974. Next, GAACGGTCGG: 0.982; CTTCATTACA: 1.03. Next, CTAATCACGG: 1.02; TTCCAAAGCG: 1.02. Consider AGAGGGGTG, for which the switch fluorescence ratio is 1.05.

For the sequence GGACAGGGAA, the switch fluorescence ratio turned out to be 0.985. Next, CTCTATAAGC: 1.11. CCAGGAACCG: the switch fluorescence ratio was 1.05.

Regarding CTTGGTCTTG, the switch fluorescence ratio stood at 0.99.

Take TGATTATACT: the switch fluorescence ratio was 1.05.

In the case of TCTTAGTGGT, the switch fluorescence ratio was 0.98. Next, AGACAAATAA: 1.01; ACTTACATGA: 1.24. With CGAGTAAATC the figure was 1.14; with GGTCCTTAG, 1.06. With CATTACATTT the figure was 0.954. For AGAGACCGAT, the switch fluorescence ratio was 1.04. With CTTGCTTCCG the figure was 1.35.

As for TCTGACCACT, the switch fluorescence ratio is 1.08.

With TCTGGTGGTG, the switch fluorescence ratio turned out to be 1.04.

Regarding GTGATATGAA, the switch fluorescence ratio came to 1.01.

With CACTGTGTCC, the switch fluorescence ratio was 0.98.

As for AAAACTACAT, the switch fluorescence ratio was 1.03.

As for AGCGTTTCGG, the switch fluorescence ratio came out at 0.985. With ACCTGGACGG the figure was 1.08; with TTCAGCTACG, 1.06; with CGAGGTTAGT, 1.03. Next, TCAATTTATT: 1; TGGTCTATTG: 1.02; ATCTATTGTT: 0.998. With TGAGGGGCA, the switch fluorescence ratio is 1.05.

As to TATTAGTAT, the switch fluorescence ratio came to 0.98.

For the sequence TATTCATGC, the switch fluorescence ratio came out at 0.999.

Take GGGTGAGCCT: the switch fluorescence ratio is 1.02.

For TTTACTTCAT, the switch fluorescence ratio amounted to 1.07. With TTTGAGCGCT the figure was 1.02. With GTGACCACCG, the switch fluorescence ratio was 1.03. With TCCGGGAGCC the figure was 1.1. Next, TACTACACAT: 1.32. With GGCTTATCTT the figure was 0.972.
